Source: article PMC12136788
Some of the results follow.

T1: UNK ZnF1-3 (human, UniProt Q9C0B0 31-174)
T1 sequence: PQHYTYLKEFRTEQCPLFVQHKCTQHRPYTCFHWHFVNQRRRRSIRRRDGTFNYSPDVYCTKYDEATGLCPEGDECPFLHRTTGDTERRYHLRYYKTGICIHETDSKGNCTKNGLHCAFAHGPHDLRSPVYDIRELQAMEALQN

B1: 132614770_132615660_474_CDS_ENSMUSG00000030750_ENSMUST00000033006|mouse|control|control (ssRNA)
RNA: GGGAGUUCUACAGUCCGACGAUCCAGAGCCUUUCUAAACAGAUCCAGCUCGUUCUCUGCAAAAUCCGUAGCCAUUUUGGAAACUGAAGUUGUAGCAAGAUUCACCAGUGCAUAAAUGGGUCUCCCAUCAUCUUCCGUGACUCCCAACAGAGGAUUGAGCAUCA
B2: chr6:124662746:124662747:+_ENSMUSG00000004264_ENSMUST00000004375|mus_hu|FALSE|FALSE (ssRNA)
RNA: GGGAGUUCUACAGUCCGACGAUCCUCGGCCAGGAUAGUGUCCUGCUGCACUCCACCGAUCCGAUUGAAGAAGAUGGCUCUGUGCCCGCCUUCCACGGUGAACACAGAUUCGCGCACACCGUAGGCCACGGCGCCGGCCCCCAGCAACAGAGGAUUGAGCAUCA
B3: 46321053_46321173_2604_CDS_ENSG00000139218_ENST00000369367|human|control|control (ssRNA)
RNA: GGGAGUUCUACAGUCCGACGAUCUUCUUGUGGAGUGUCUUUGUUGGGUGACCAAGUUGUAGAUGGAGAAUGAAAUCUAGAUCUUCGAGUACGAGGCUUUUUGGUUUUAUCUAUGGUAUCUUUUGGGCUUUCAGAUGGUUGAGACAACAGAGGAUUGAGCAUCA
B4: chr15:103023242:103023243:-_ENSMUSG00000009575_ENSMUST00000118152|mus_mus|motif|central (ssRNA)
RNA: GGGAGUUCUACAGUCCGACGAUCAACUAGCAGCAUUGAUGAGGGGUUAAGGGAUUGGGGACAGAAACUCACCAAGGUCACGGAGUACUUCCAAACUUGGAAGUAGCUCAGUGAGGGCUAAAAAAACUUCGACUGAAGGUAUCCCAACAGAGGAUUGAGCAUCA
B5: chr12:53618122:53618123:+_ENSMUSG00000035133_ENSMUST00000110725|mus_hu|motif|central (ssRNA)
RNA: GGGAGUUCUACAGUCCGACGAUCUCUUGUUCCCUCUAAGUUGAUGUAUUCUUCAUAAUCAGGAUGAUUUUUUAAUUUAUUACGGACAGUUUUCCAAGUUGCAUGAUAAUCUCUCACAGUCUGCACAAGUUUUUCAAACUUAUCCAACAGAGGAUUGAGCAUCA
B6: chr7:87826631:87826632:+_ENSG00000008277_ENST00000398209|hu_hu|motif|central (ssRNA)
RNA: GGGAGUUCUACAGUCCGACGAUCGCAUCAGCAAACUGUGGAGGCCAGAAGUUUUGCUGGGCAUUUUGUUCUCUCACUCAACGGCUCACUCAAUAAAACUGCCUCCAGACUGUGCACAGGUUAAAGGGAUAUCACAUGUUUUGGCAACAGAGGAUUGAGCAUCA
B7: chr9:110467127:110467128:+_ENSMUSG00000044791_ENSMUST00000153838|mus_hu|FALSE|FALSE (ssRNA)
RNA: GGGAGUUCUACAGUCCGACGAUCUUCUUUUCCAUAUCUCUGGAACUGAUAGUCAAACGUUAACUCUGAGCCUGAAGGAACCAGUUUGGUGGUAAAAAACCCAACCCUCAGUUGUCCGUUCACAGUCCAUUUUUGGGUUUCACACAACAGAGGAUUGAGCAUCA
B8: chr2:153237265:153237266:-_ENSMUSG00000061411_ENSMUST00000109784|mus_mus|mus_mus_mus_hu_False|8_108 (ssRNA)
RNA: GGGAGUUCUACAGUCCGACGAUCAAAAAAAAGAAAAAAAAAGUGUCCUUGUGCCCAAAGUCUCAGGUGCUUGGAGUGUGGCUAGAAACAGCUCUUUUGGAUCCCACCUCUUUCAAAAACAAAAUGUCCAACUGGUGGAGGCAGCAACAGAGGAUUGAGCAUCA
B9: 142144148_142144364_600_3pUTR_ENSG00000114127_ENST00000264951|human|control|control (ssRNA)
RNA: GGGAGUUCUACAGUCCGACGAUCAUUUUAUGCUCUCCUUCUCCAGGAGUCUCAUGGCCUGAGAAGUAGAUGGUAACUCCUUGCCAUGACUUGUCUGUGGAAAUUUUCAUAUUUACAAAAUACUUCAGAUGUUCAUGUAACCUGCAACAGAGGAUUGAGCAUCA
B10: chr22:32879901:32879902:+_ENSG00000100225_ENST00000397426|hu_mus|hu_hu_hu_mus_False|38_98 (ssRNA)
RNA: GGGAGUUCUACAGUCCGACGAUCCUCUUCCAUACUCGCAUUAUCUUGAAUUGACUCAGCUUCAACAUUUUGACUAGGCCCUUCCAUACUGUCAUCAUUCCAAACACCAAAUGGGGUGGCCUGUCCUUGGGAUGAAUCAGUCCCCAACAGAGGAUUGAGCAUCA
B11: chr4:17845017:17845018:+_ENSG00000109805_ENST00000514176|hu_mus|hu_hu_hu_mus_False|8_58 (ssRNA)
RNA: GGGAGUUCUACAGUCCGACGAUCGCUCUCUUAACUUGUAUCUUCAUUAAGGAACUCUGCAAGGUUAAGUUUACUUUUUCUAGUGCUAGCUGUUUUGGCUCGUCUGGGUAAUCUCAUCUUCAUUUCUAUUCUGGUUCCAUGAUCCAACAGAGGAUUGAGCAUCA
B12: 79689884_79690004_1227_CDS_ENSG00000067715_ENST00000261205|human|control|control (ssRNA)
RNA: GGGAGUUCUACAGUCCGACGAUCUUGCUCAUUGAAGACAGGAUUAAGGGUUUUUCGGUGGACUUUUGUCUCAAAUUUCUUCUUCUUAUCAGGUAGCAGAAACACUUUCACGUAAGGAUCAGAUGUGCCCCCCAUGUCCAAGGCCAACAGAGGAUUGAGCAUCA
B13: chr12:48362563:48362564:+_ENSG00000134291_ENST00000256686|hu_hu|hu_hu_hu_mus_False|78_108 (ssRNA)
RNA: GGGAGUUCUACAGUCCGACGAUCUCCGAAGGGUGAAUCGAUAGACCCUUGCGGGGGUGGUAAAAACCACUUUGUAUGGGGAAGGAAAAGAAACGCCAAAAACUUUCCAAAAAGCGGGGGUGGGGUGAGGCGGGAGGGGGAGGUCAACAGAGGAUUGAGCAUCA
B14: chr7:44244176:44244177:+_ENSG00000106636_ENST00000223369|hu_mus|hu_hu_hu_mus_False|78_88 (ssRNA)
RNA: GGGAGUUCUACAGUCCGACGAUCACUGUCGCUCCGGACGUAGACAUGGCACAGAUAGUCUUGUUCUUUGACAGAAGCUCUGCUGCCUUUCCCCGAGCGUUCCACAAUCAGUUGACUUGUAAAGGUCAUGAAUUCCUGCACACUCAACAGAGGAUUGAGCAUCA
B15: 84674927_84675047_7096_3pUTR_ENSG00000065615_ENST00000369681|human|control|control (ssRNA)
RNA: GGGAGUUCUACAGUCCGACGAUCCUUCCCAUGGUCUUGGGCAGCUCUGGCCCUGUGGCUUUCAGGGUACAGCCUCCAUCCUGGCUGCUUUCAUGGGCUGGUGUUGAGUAUCUGCAGCUUUUCCAGGCACCUGGUACAAGCUGUCAACAGAGGAUUGAGCAUCA
B16: chr6:38652254:38652255:-_ENSG00000124767_ENST00000373365|hu_hu|hu_hu_hu_mus_False|48_98 (ssRNA)
RNA: GGGAGUUCUACAGUCCGACGAUCCGAGAACUUCAUAAUGGGAAAAUCAAGCUUCUGCAGGAGGGUCAGUCCAAGAACCCUCGUAUAAAAAUCCAGUGACUUCUUAGGAUCCUUAAUUCUUAGCAUCGUUUGCUGCAGUAGAAACAACAGAGGAUUGAGCAUCA
B17: chr5:71489826:71489827:+_ENSG00000131711_ENST00000296755|hu_hu|FALSE|FALSE (ssRNA)
RNA: GGGAGUUCUACAGUCCGACGAUCUGAGAGAUACUCGGUAAACUCAGAAAGUCCUUCCAUUUCUGGCAAGAUAGAAGCUGAAUUGAGUUUAAUAUUGAUGAAGUCUUGGAGAUUGUGUCUGUCAAGAUUGGAGUUCUUCCAGUCCAACAGAGGAUUGAGCAUCA
B18: chr2:160604868:160604869:+_ENSG00000136536_ENST00000409591|perfect_dup|FALSE|FALSE (ssRNA)
RNA: GGGAGUUCUACAGUCCGACGAUCUGCCUCUGGUUCAGAGCUAUGAUUUUGGCUGAGCGACGACAACCCCCAUCUUCGCCUAAGAAAUCUAAAUCCCUGAGAUGCUUCAGCUGCCCUGCCCUCACUGACGUCAGAGGACGAGGACAACAGAGGAUUGAGCAUCA
B19: chr8:117878989:117878990:-_ENSG00000164754_ENST00000297338|hu_hu|hu_hu_hu_mus_True|1_68 (ssRNA)
RNA: GGGAGUUCUACAGUCCGACGAUCCCAGAGGCCCUCGUUUACUGAGGACAAAAUGUGCGUAGAACAUUGUUCUGGCUUGCUAUGAAAUAAGAAGAAACCUGGAUCUCGGCGGGGAGCCGGGAGGGGUGGGUGGCCCGGGGGAGGCAACAGAGGAUUGAGCAUCA
B20: 103941370_103941490_1487_CDS_ENSG00000075413_ENST00000216288|human|control|control (ssRNA)
RNA: GGGAGUUCUACAGUCCGACGAUCUGCAUUCCCAAGCAUGGGACUGGCUGGAGCAAUUCCCUUUCCUCCAACAGCACUGCCACUUGAUUUCCGGGAGGAAAUUCCAUCUUCUUUGAGGUCACUAUCUGCAGUGCUGGUCUGACUCAACAGAGGAUUGAGCAUCA
B21: chr5:132424114:132424115:+_ENSG00000170606_ENST00000304858|hu_mus|motif|central (ssRNA)
RNA: GGGAGUUCUACAGUCCGACGAUCACCAAAAAACUUGCUGAUCUUCUCUUUCACUGCAGGGAUUCGUGUGGCACCACCAACGGUCUCCACUGCAUAAAUAUCUUCUUUCUUUAACUUGGAUUGCUCCAAGACGCUUCGAAGUGGCAACAGAGGAUUGAGCAUCA
B22: chr12:85022504:85022505:+_ENSMUSG00000010608_ENSMUST00000048155|mus_mus|FALSE|FALSE (ssRNA)
RNA: GGGAGUUCUACAGUCCGACGAUCCACAAGGCCAAUUUUCUUGGCUUCUGUUUCAUAUAUCAAUAAUCUCCACAUUUUGACUAUAAAAACUUCUGCUUCUUCAUCUAGUACCAUGGCAACAUCAUCUAAAAUGCUCUGUGGUGACAACAGAGGAUUGAGCAUCA

Each binder was assayed against T1, UNK ZnF1-3 (assay: nsRBNS (natural sequence RNA bind-n-seq); RBNS binding buffer (assumed for nsRBNS): 25 mM Tris pH 7.5, 150 mM KCl, 3 mM MgCl2, 0.01% Triton X-100, 500 ug/ml BSA, 20 U/ml SUPERase-In, 4 C; UNK is unkempt and MSI1 is Musashi-1; names of the RNAs are library labels; protein concentration not given here; high values mean tight binding).

Binder	binding signal [enrichment R]
B1	1.02
B2	0.653
B3	0.862
B4	1.29
B5	1.11
B6	1.87
B7	0.832
B8	1.73
B9	0.586
B10	0.885
B11	0.368
B12	1.23
B13	2.15
B14	0.772
B15	0.483
B16	1.14
B17	0.825
B18	0.706
B19	2.06
B20	0.868
B21	0.803
B22	0.883
